Test results published in PubChem BioAssay AID894 (National Center for Advancing Translational Sciences (NCATS), 2007).
Hit rate of the full screen: of about 150,000 compounds, about 6,500 (4.3%) were called active. Inconclusive means that the source gave no clear call. Such entries were picked first, then a sample of the others. Calls come from the whole dose curve; as a rule, active = well fitted inhibition curve with a large enough effect (not every such curve was filed as active); inconclusive = small, poorly fitted or top-dose-only effect, or another doubt; inactive = no such curve, though single readings can be large or run the other way. Potencies of inconclusive entries are left out as doubtful fits. A structure can be active in one record and inactive in another.

Target: 15-hydroxyprostaglandin dehydrogenase [NAD(+)] (Homo sapiens) (UniProt P15428)
Sequence of UniProt P15428 (P15428 whole entry, looked up): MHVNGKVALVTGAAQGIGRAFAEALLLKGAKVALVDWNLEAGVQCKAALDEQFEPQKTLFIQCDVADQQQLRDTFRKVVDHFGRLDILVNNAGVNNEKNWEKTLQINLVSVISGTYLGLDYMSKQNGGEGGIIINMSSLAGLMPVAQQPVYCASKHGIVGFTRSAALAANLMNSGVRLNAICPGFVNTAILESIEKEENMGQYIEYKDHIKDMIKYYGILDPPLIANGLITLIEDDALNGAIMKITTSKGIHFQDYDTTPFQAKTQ
Assay: qHTS Assay for Inhibitors of HPGD (15-Hydroxyprostaglandin Dehydrogenase)
Details: purified HPGD, NADH fluorescence kinetic, PGE2 substrate; activity change, negative = inhibition: stronger effect = lower value
In short: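 NADH formation kinetics: reaction with 30 uM PGE2 and 1 mM NAD+ (final), 20 nM enzyme, Tris-HCl pH 8 with Tween 20, after 15 min compound preincubation at room temperature. Fluorescence change, last versus first of five reads.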
% is set by controls: 0 for no effect and ±100 for the full control effect; potency is the fitted concentration of half-maximal effect; tags give direction and shape of the fitted curve.

SMILES | Potency | activity change, negative = inhibition
CCCn1c(=NC(=O)c2ccco2)c(C(=O)OCC)cc2c(=O)n3ccccc3nc21 | inconclusive [inhibitor, partial curve] | 
CC(C)Sc1nc2c(c(=O)[nH]c(=O)n2C)n1Cc1ccc(Cl)cc1 | inconclusive [inhibitor, single point] | 
COc1ccc(NC(=O)C(c2ccc(OC)cc2)N(C)C(=O)c2cnccn2)cc1 (configuration not stated) | inconclusive [inhibitor, partial curve] | 
N#Cc1ccc(Oc2ccc(-c3nc4ccccc4nc3-c3ccccc3)cc2)cc1C#N | inconclusive [inhibitor, partial curve] | 
CCn1c(-c2csc(C(C)C)c2)n[nH]c1=S | inconclusive [inhibitor, partial curve] | 
O=C(c1ccc(COc2c(F)c(F)c(F)c(F)c2F)o1)N1CCN(Cc2ccc3c(c2)OCO3)CC1 |  | inactive: -19.9%
Cc1ccc(C(=O)Oc2cccc(NC(=O)c3ccco3)c2)cc1S(=O)(=O)N1CCC(C)CC1 |  | inactive: -17.2%
C=CCNc1nnc(SC2CC(=O)N(c3ccc(OC)cc3)C2=O)s1 (configuration not stated) | inconclusive [inhibitor, partial curve, poor fit] | 
Cc1ccc2c(n1)sc1c(-c3ccc(Br)cc3)c(C#N)c(N)nc12 | inconclusive [inhibitor, partial curve] | 
Nc1cc2sc(-c3ccc(C(=O)O)cc3)nc2cc1Cl | inconclusive [inhibitor, partial curve] | 
FC(F)(F)c1nc(-c2cccs2)ncc1-c1nnnn1-c1ccc(Cl)cc1 | inconclusive [inhibitor, partial curve] | 
Cc1cccc(C(=O)O)c1C[C@H]1NCC[C@H]2c3ccccc3N[C@@H]12 | inconclusive [inhibitor, partial curve] | 
CN(C)c1ccnc(SCc2ccccc2Cl)c1C#N | inconclusive [inhibitor, single point] | 
O=C(COc1cccc2cccnc12)Nc1nccs1 | inconclusive [inhibitor, partial curve] | 
COc1ccc(-c2cc([C@H](O)C3CCCCN3)c3ccccc3n2)cc1 (some centres not stated) | inconclusive [inhibitor, partial curve] | 
CCOC(=O)N1CCC(NC(=O)c2cc(C(=O)Nc3ccc(OC)c(OC)c3)ccc2CO)CC1 | inconclusive [inhibitor, single point] | 
COC(=O)C1(C)Nc2ccccc2C(=O)N1c1ccccc1C (configuration not stated) | inconclusive [inhibitor, single point] | 
Cn1c(=O)c2[nH]c([C@@H]3CC(=O)C[C@H](c4nc5c([nH]4)c(=O)n(C)c(=O)n5C)N3)nc2n(C)c1=O |  | inactive: -11.9%
COc1ccc(-c2nc3c(Br)c(N)c(Br)cc3o2)cc1 | inconclusive [inhibitor, single point] | 
CCN(CC)S(=O)(=O)c1cc(NS(=O)(=O)c2cccc(Cl)c2)ccc1C |  | inactive: -4%
O=C(CCCc1nc2ccccc2s1)Nc1nccs1 |  | inactive: -20.7%
CCn1nnnc1SCC(=O)c1cc(OC)ccc1OC |  | inactive: -21.8%
COc1ccccc1/C=C/C=N/NC(=O)c1ccc(=O)n(C)c1 | inconclusive [inhibitor, partial curve] | 

SMILES | Potency | activity change, negative = inhibition
Brc1cccc(-c2nnc3n2CCC3)c1 |  | inactive: -11.6%
CSc1nc(=S)n(Cc2ccccc2)c(C)c1C(C)=O | inconclusive [inhibitor, partial curve] | 
CCCCC(=O)Nc1nn(C)c2nc3c(C)cccc3cc12 | inconclusive [inhibitor, partial curve] | 
CCCCCC(=O)NC(=S)Nc1cccc(C(C)=O)c1 | active: 14.1 µM | 
CC(=O)C1=C(O)C(=O)N(c2cccc(C(=O)O)c2)C1c1ccc(F)cc1 (configuration not stated) | inconclusive [inhibitor, partial curve] | 
COc1ccc2[nH]c(=O)c(CN(CCCN(C)C)C(=O)Nc3ccccc3)cc2c1 | inconclusive [inhibitor, full curve, poor fit] | 
O=C(O)c1cc(Cl)c2c(c1)[C@@H]1C=CC[C@@H]1[C@H](c1ccc(S(=O)(=O)N3CCOCC3)cc1)N2 | inconclusive [inhibitor, single point] | 
CCNCc1cc2cc(C)ccc2[nH]c1=O | inconclusive [inhibitor, partial curve] | 
COc1ccc(C(=O)N2CCN(c3ncnc4c(-c5ccccc5)nsc34)CC2)cc1 | inconclusive [inhibitor, partial curve] | 
CCn1c(=NC(=O)CN2C(=O)CCC2=O)sc2c(OC)ccc(OC)c21 | inconclusive [inhibitor, partial curve] | 
COc1ccc(-n2c(SCC(=O)N3CCCCC3C)nnc2-c2cccnc2)cc1 (configuration not stated) | active: 20 µM | 
FC(F)(F)c1cc(-c2ccco2)nc(NCCc2ccccc2)n1 | inconclusive [inhibitor, partial curve] | 
Nc1c(S(=O)(=O)c2cccs2)c2nc3ccccc3nc2n1CC1CCCO1 (configuration not stated) | inconclusive [inhibitor, partial curve] | 
Cc1nn(C)cc1C1C2=C(CC(C)(C)CC2=O)OC2=C1C(=O)CC(C)(C)C2 |  | inactive: -6.79%
COC(=O)c1cc(Cl)c(NC(=O)/C=C/c2ccc(OC)c(OC)c2)cc1OC | inconclusive [inhibitor, partial curve, poor fit] | 
Cc1ccccc1NC(=O)CSc1nc(N)c(C#N)c(-c2cccs2)c1C#N | inconclusive [inhibitor, partial curve] | 
COc1ccc(-c2oc3ncnc(NCCCN4CCOCC4)c3c2-c2ccc(OC)cc2)cc1 | inconclusive [inhibitor, partial curve] | 
Cc1ccc(CSCCC(=O)NCCC2=CCCCC2)cc1 | inconclusive [inhibitor, partial curve] | 
COc1cccc2c1nc(C)c1cc(C)oc12 | inconclusive [inhibitor, partial curve] | 
CCOc1ccc(N=C(NN)c2ccc3ccccc3n2)cc1 | inconclusive [inhibitor, partial curve] | 
COc1ccccc1CNC(=O)Nc1cccs1 | active: 22.4 µM | 
Cc1ccc(C2C3=C(CC(C)(C)CC3=O)Nc3onc(C)c32)cc1 (configuration not stated) | inconclusive [inhibitor, partial curve] | 
CCOC(=O)CCc1c(C)c2ccc(OCC(=O)OC(C)C)cc2oc1=O | inconclusive [inhibitor, partial curve] | 

SMILES | Potency | activity change, negative = inhibition
COc1cccc(-c2cc(C(=O)NCc3ccco3)no2)c1 | inconclusive [inhibitor, partial curve] | 
COc1ccc(-c2cc(C(=O)OCC(=O)Nc3ccc4c(c3)OCO4)c3ccccc3n2)cc1 | inconclusive [inhibitor, partial curve] | 
O=C(c1ccco1)N1CCN(c2c(-c3ccccc3)c3cc(Cl)ccc3[nH]c2=O)CC1 | inconclusive [inhibitor, partial curve, poor fit] | 
COc1ccc(-n2c(C)nc3cc(C(=O)NCc4ccco4)ccc32)cc1 | active: 8.91 µM | 
O=C(CSc1nc2ccccc2s1)NCc1ccc2c(c1)OCO2 | active: 31.6 µM | 
Cn1c(C(=O)N2CCCc3ccccc32)cc2c(=O)n3ccccc3nc21 | inconclusive [inhibitor, partial curve] | 
CC(=O)c1cccc(N/C=C\c2nnnn2-c2ccc(F)cc2)c1 | inconclusive [inhibitor, single point] | 
Cc1c(/C=C/C(=O)c2cccs2)cnn1C | inconclusive [inhibitor, partial curve] | 
Cc1ccccc1-n1c(-c2ccncc2)n[nH]c1=S | inconclusive [inhibitor, single point] | 
C=CCNC(=O)CCCOc1cc(C)ccc1C | active: 14.1 µM | 
O=C(O)CSc1nc2c(cnn2-c2ccccc2)c(=O)n1-c1ccc(Br)cc1 | active: 14.1 µM | 
C[N+]12CCC(CC1)[C@@H](OC(=O)C(O)(c1ccccc1)c1ccccc1)C2 |  | inactive: -1.99%
CNc1ccc(C2(O)C(=O)c3ccccc3C2=O)cc1 |  | inactive: -5.56%
COC(=O)[C@@]1(Cc2ccc(F)cc2)[C@H]2c3cc(C(=O)N4CCCC4)n(Cc4ccc(C)o4)c3C[C@H]2CN1C(=O)c1ccccc1 | active: 22.4 µM | 
COc1ccc(NC(=O)CC2C(=O)N(CCc3ccccc3)C(=S)N2Cc2cccnc2)cc1 (configuration not stated) |  | inactive: -4%
Cc1ccc(NC(=O)c2ccccc2NS(=O)(=O)c2ccc(F)cc2)cc1S(=O)(=O)N1CCCCC1 | inconclusive [inhibitor, partial curve] | 
CC1CCCCC1NC(=O)CSc1nncs1 (configuration not stated) | active: 22.4 µM | 
CC(C)Cn1cc(C(=O)N2CCN(c3ccccn3)CC2)c2c3ccccc3n(C)c2c1=O | inconclusive [inhibitor, partial curve] | 
COC(=O)c1c(C)c2c(c(C)c1O)OC(=O)c1c(C)c(Cl)c(O)c(Cl)c1O2 | active: 7.08 µM | 
COC(=O)C1=C(C)OC(N)=C(C#N)C1c1cc(C)sc1C (configuration not stated) | active: 28.2 µM | 
COc1ccccc1-c1ccc2ncnc(N3CCN(C)CC3)c2c1 | inconclusive [inhibitor, partial curve] | 
